Whole data set: some 33,000 sequences, median “E-score (-0.5 to 0.5)” near -0.041, cut for the highest 2% near 0.37. The list shows a part of the results.
Each sequence was assayed against T1, Ecm22 (UniProt Q05958) (assay: PBM E-score (8-mer binding enrichment) (E-score (-0.5 to 0.5)); higher = stronger / more preferred TF binding; most listed sequences are background and not binding sites). Conditions: protein concentration: 200 nM; construct: GST-full length.
T1 sequence: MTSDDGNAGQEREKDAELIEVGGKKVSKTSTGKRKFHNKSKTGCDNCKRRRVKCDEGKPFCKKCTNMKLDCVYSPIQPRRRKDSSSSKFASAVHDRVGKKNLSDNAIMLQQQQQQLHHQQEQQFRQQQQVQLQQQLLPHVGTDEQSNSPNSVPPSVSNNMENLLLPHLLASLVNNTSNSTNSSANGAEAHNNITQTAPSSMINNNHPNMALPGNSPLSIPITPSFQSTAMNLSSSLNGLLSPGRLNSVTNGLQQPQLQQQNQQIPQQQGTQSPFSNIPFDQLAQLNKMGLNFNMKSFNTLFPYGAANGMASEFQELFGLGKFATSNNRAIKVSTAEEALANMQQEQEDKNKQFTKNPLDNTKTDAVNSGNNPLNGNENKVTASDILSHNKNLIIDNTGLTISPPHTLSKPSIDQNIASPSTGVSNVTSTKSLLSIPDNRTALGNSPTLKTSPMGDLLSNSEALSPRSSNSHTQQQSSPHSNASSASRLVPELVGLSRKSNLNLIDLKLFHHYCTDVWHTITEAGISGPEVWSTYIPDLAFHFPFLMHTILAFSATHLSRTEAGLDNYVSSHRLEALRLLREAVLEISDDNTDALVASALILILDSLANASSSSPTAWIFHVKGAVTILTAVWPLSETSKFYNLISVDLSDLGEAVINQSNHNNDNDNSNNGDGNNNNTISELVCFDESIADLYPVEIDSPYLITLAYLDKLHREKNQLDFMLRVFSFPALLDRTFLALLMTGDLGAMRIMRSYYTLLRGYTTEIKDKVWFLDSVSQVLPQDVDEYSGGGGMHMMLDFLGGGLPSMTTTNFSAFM
Experimental: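 Universal 'all 10-mer' protein binding microarrays (Agilent AMADID 015681) probed with GST-tagged S. cerevisiae TFs (full-length or DBD) made by in vitro transcription/translation (PURExpress), about 100-200 nM. Bound TF was detected with fluorescent anti-GST. Each ungapped 8-mer (which stands for itself and its reverse complement) is scored by the PBM enrichment score (E-score), a modified Wilcoxon-Mann-Whitney statistic from -0.5 to +0.5, computed with the Universal PBM Analysis Suite. Scale: above 0.35 generally sequence-specific binding.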

Sequence	PBM E-score
ACAGTTTA	-0.0338
GAGCACCC	-0.027
CAAGTCAC	-0.116
GGGGATAC	-0.0258
CAGATTTC	-0.00105
GCGCACAC	-0.264
CGCAACGC	0.0974
CTTCCCAC	0.00615
GCAACCAA	-0.202
AGAACTAA	-0.0584
GGAACACC	-0.163
TCAACGCA	0.0682
GACCCTCC	0.00379
ATCGACGG	-0.137
GACGGTGA	-0.144
CGTAGAGC	0.179
CCATTCGA	-0.0965
CTCCGAGC	0.0444
CATAATTA	0.0847
AAGATGTA	0.00374
ACCCTAAT	-0.151
ACGGGTTC	0.0509
GGCTCTAC	0.0149
TAAGACAA	-0.0947
CCGCCGCA	0.0487

Sequence	PBM E-score
CCCGGATA	0.0413
CTCTCATC	-0.0888
CGTCCACA	-0.222
CGGATCAA	0.075
CGGACACC	0.00732
GTCCGACA	0.0997
GGGCGTTA	0.0866
AGCGGAGC	0.111
TAGTCTGA	-0.119
ACACCGAC	-0.0448
ATGATTTA	0.0824
CATCGGGA	0.0161
GGCAAATA	0.0111
CAGGAGGG	-0.302
GTCCCATA	0.00889
GTAAGAAC	0.183
CTCGTAAC	0.428
ACAAACCT	-0.161
AATTTCAA	-0.13
CCATCAGG	-0.17
TATCACGA	0.131
ATATAAGG	-0.0925
AACCTTCT	-0.217
CGGGCACG	-0.149
GTAATATA	0.227

Sequence	PBM E-score
ACTGGGCA	-0.12
ACGTCGCA	0.202
GTATGCTA	0.141
CACCACAA	-0.0829
CCGCTAGG	-0.209
GTGTCCCA	0.0205
AGGTCGAG	-0.165
GGAGGCAA	-0.183
CAGCGAAC	0.0949
GCGCAATA	0.0797
GGCACATA	0.00341
AGAAGGGC	-0.117
ATCAGGGG	-0.137
CGTTGCCA	0.253
ATCGATTC	-0.0489
GGGCTGAA	-0.105
AGAGATAA	-0.0829
CACACACG	0.0562
ATCGGCTG	-0.105
AACGCAGA	0.0206
AGTTTTTC	0.00828
CGTGGACC	-0.108
TCGTCAGA	-0.0689
GAGTTATA	-0.0106
AGGATAGG	0.00377

Sequence	PBM E-score
GGCGAGGA	-0.0667
CCCTTTTA	-0.255
CGGACTAG	-0.0708
GCCATACC	-0.175
ATGTGGTA	-0.0336
CGTTAGAG	0.0242
GCGAGAGA	0.125
ACTGATCT	0.0127
GAGGACAC	-0.0953
ACCTCCAC	-0.141
GCGGCAAC	-0.141
ACATGCGA	0.142
GCTATCCA	0.00421
ATTCTTAA	0.0259
CCGGGAAC	0.171
ATCGGGTC	0.174
CAGCACTC	-0.0915
GCGACACC	-0.0222
GATTTTGC	-0.0105
CCACCGGC	-0.16
CATCGCCG	-0.00069
ACCCCTTC	-0.198
CGTCTTTA	-0.0108
CCCTTGCC	-0.122
GAGCCGCA	-0.0299

Sequence	PBM E-score
CTACCCCC	-0.41
CCGACCGA	0.203
GGACTATA	-0.00516
CGAATTGC	0.166
AGGTACCG	0.139
TCGCGGAA	0.0328
GAATCTGC	-0.0858
GGACTGCC	-0.238
ATTAGCAC	0.00659
ATGTGAAT	0.133
AGCTACAG	-0.26
AAATCCAT	0.108
AGTTTACA	-0.0418
CCTCCTTC	-0.0536
AAAGAAGC	-0.0769
CCAAGCGC	-0.211
ATACGGAT	0.332
ATCCGGCG	0.031
ACAGCGCA	-0.19
GCGAATTA	0.169
AGAGAGAC	-0.214
GACGTGGA	-0.195
AAGTAGCC	-0.295
AACATTTC	-0.0204
ACAATTGG	-0.16

Sequence	PBM E-score
GAGCTTGC	-0.183
CCGACTCC	0.0133
GGTAATCA	-0.14
TAAAAGGA	0.0115
CTTGCGTC	-0.2
ACATTTTG	-0.139
ACCCACAT	-0.00774
CCACAAAG	-0.0691
CCGAATAA	0.221
ACAGAAGA	-0.118
GTACGCTA	0.244
ACGGTGTG	0.0821
CAACAACC	0.075
CGAGCCAC	0.2
CCTCTGAC	-0.173
CTAAGTTA	-0.039
AAGATCAT	-0.043
TCCTCAGA	-0.181
CGCGCAAG	0.123
GGCACCCC	-0.0529
AGCCGAGA	0.0153
ATAGACGC	-0.114
ATCAGGAA	0.0244
CCGCTGCA	-0.182
CTGTGACA	-0.272

Sequence	PBM E-score
AACAGAGC	-0.163
CTGCGAAG	-0.0466
AACATCTG	-0.131
TCGGGAGA	0.128
AATCTTCT	-0.151
AGAATCCG	0.17
AGACACGG	-0.0314
CTGTCTTA	0.00222
CGACTAGC	0.0272
ATGCCCCA	-0.165
CAAGGAGG	-0.166
GCTTGTTA	-0.00655
GCCCTTTA	-0.12
ACCACCAT	-0.103
AATAAGCT	-0.013
GATTTAAA	-0.158
CGTCTTGC	-0.128
GGCCGATA	-0.032
ATCAAGAT	-0.0385
AGGGCTTC	-0.0968
TACTTTAA	-0.0463
ACAAGGGG	-0.185
